91 compounds from article PMC4336329 (PLoS ONE, 2015) can be followed below.

Among all 310,000 compounds or so, about 14,000 (4.5%) showed an effect of 50% or more. Effects have a minus sign here. This is one part of the list.
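Further: peak tail current of the secondary pulse compared with the same well before compound.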

The experiment deals with human ether-à-go-go-related gene (hERG) potassium channel (human, UniProt Q12809). The experiment can be described thus: primary screen, population patch clamp on CHO cells stably expressing hERG.
Sequence of human ether-à-go-go-related gene (hERG) potassium channel (Q12809 whole entry, looked up): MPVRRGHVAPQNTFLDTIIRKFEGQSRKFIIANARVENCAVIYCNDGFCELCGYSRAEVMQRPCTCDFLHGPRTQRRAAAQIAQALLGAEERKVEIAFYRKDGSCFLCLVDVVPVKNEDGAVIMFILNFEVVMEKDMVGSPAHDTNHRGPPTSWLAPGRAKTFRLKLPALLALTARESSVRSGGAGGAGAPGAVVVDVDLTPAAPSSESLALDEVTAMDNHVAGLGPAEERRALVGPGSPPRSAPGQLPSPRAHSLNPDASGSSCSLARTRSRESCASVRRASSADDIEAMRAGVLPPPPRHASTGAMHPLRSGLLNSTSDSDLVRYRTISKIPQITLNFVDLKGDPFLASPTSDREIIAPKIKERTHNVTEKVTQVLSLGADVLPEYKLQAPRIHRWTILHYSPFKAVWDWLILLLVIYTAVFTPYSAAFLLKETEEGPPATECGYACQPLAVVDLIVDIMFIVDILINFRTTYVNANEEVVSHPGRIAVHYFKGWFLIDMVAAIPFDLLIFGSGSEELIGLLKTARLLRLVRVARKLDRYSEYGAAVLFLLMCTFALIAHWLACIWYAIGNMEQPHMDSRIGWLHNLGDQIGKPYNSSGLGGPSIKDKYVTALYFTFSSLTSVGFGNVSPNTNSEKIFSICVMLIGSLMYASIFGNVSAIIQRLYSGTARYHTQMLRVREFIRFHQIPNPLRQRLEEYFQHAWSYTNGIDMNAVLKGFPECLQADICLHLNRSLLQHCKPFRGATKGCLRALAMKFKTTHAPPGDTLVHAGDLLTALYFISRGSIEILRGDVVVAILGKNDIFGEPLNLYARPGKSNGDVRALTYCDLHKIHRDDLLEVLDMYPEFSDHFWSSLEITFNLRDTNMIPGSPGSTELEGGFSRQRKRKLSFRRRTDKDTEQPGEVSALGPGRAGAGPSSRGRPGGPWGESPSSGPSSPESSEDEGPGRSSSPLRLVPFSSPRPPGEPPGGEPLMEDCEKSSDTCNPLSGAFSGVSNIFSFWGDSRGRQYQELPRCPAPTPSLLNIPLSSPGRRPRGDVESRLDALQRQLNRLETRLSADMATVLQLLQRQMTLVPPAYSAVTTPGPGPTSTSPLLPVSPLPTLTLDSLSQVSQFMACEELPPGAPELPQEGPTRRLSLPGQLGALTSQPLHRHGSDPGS
In the case of `Cc1nn(-c2ccccc2)c(Cl)c1/C=N/NC(=O)c1[nH]ncc1Br`, the “hERG current change (%, negative = inhibition) at 10uM” value is given as -5.51%.
With `C=CCOC(=O)C1=C(C)NC2(O)c3ccccc3C(=O)C12O` (stereo not shown), the “hERG current change (%, negative = inhibition) at 10uM” value came to 0.217%.
To `CCOc1ccc(NC(=O)N2C[C@H]3C[C@@H](C2)c2cccc(=O)n2C3)cc1` belongs 8.54%; to `Cc1ccccc1C(=O)Oc1ccc(Cl)cc1C(=S)N1CCOCC1`, 2.16%.
As for `O=C(NC1CC1)C1CCN(C2CCN(C(=O)c3c(F)cccc3Cl)CC2)CC1`, the figure is 13.3%; as for `CCOc1ccccc1/C=N/NC(=O)c1nnn(-c2nonc2N)c1CN1CCC(C)CC1`, 9.08%; as for `CCOC(=O)C(=O)Nc1cc(Cl)ccc1C`, 8.06%.
`Cc1ccc(-n2c(C)cc(C(=O)COC(=O)C3=NNC(=O)CC3)c2C)cc1`: the “hERG current change (%, negative = inhibition) at 10uM” value was -42.3%.
On to `O=C(NC1CCN(Cc2ccccc2)CC1)c1ccc(Cl)cc1Cl`, for which the “hERG current change (%, negative = inhibition) at 10uM” value is given as -75%.
To `CCOC(=O)NC1(NCc2ccccc2)Oc2ccccc2O1` belongs -4.1%; to `Cc1ccc(C)c(OCC(=O)Nc2ccc3c(c2)OCO3)c1`, 1.44%.
For the compound `Cn1nnnc1SCc1ccc(CSc2nnnn2C)cc1`, the “hERG current change (%, negative = inhibition) at 10uM” value was 9.74%.
Turning to `COC(=O)C(Cc1ccc(O)cc1)NC(=O)CCNC(=O)c1ccco1` (stereo not shown), the “hERG current change (%, negative = inhibition) at 10uM” value was 18.8%.
To `O=C(Cc1ccc([N+](=O)[O-])cc1)Nc1ccc2c(c1)OCO2` belongs -13.9%.
For the compound `CC(C)NC(=O)CC(=O)N/N=C/c1ccc(F)cc1`, the “hERG current change (%, negative = inhibition) at 10uM” value is given as -0.455%.
On to `COc1ccc(Oc2ccc(/C=C/C(=O)c3cccc(OC)c3)cc2[N+](=O)[O-])cc1`, for which the “hERG current change (%, negative = inhibition) at 10uM” value is -14%.
As for `Cc1nn(-c2ccc(F)cc2)c(C)c1/C=C/C(=O)N1CCNC(=O)C1`, the figure is 12.3%; as for `C=CCNC(=S)NNC(=O)c1ccccc1`, 11.8%; as for `CC1=Nn2c(nnc2-c2ccco2)SC1`, -3.87%.
To `Fc1cccc(NCc2ccoc2)c1` belongs -7.89%; to `Cc1ccnc(NC(=O)CCC(=O)N(CC(=O)NCCc2ccccc2)Cc2cccs2)c1`, -31%; to `O=C(N/N=C/c1ccc[nH]1)c1ccc([N+](=O)[O-])cc1`, -1.95%.
As for `COC(=O)c1cnc(SCC(=O)c2ccccc2)n1C`, the figure is 5.4%.
As for `O=c1[nH]c2ccc(S(=O)(=O)N3CCCC3)cc2[nH]1`, the “hERG current change (%, negative = inhibition) at 10uM” value stood at 17.6%.
Take `CCC(CC)c1nnc(NC(=O)CCS(=O)(=O)Cc2ccccc2)s1`: the “hERG current change (%, negative = inhibition) at 10uM” value is 29.5%.
To `N#Cc1cccc(NC(=O)CN2C(=O)NC3(CCCCCC3)C2=O)c1` belongs 5.61%.
As for `CCOc1cc(N2CCOCC2)c(OCC)cc1NC(=O)Cn1nc(C)c([N+](=O)[O-])c1C`, the “hERG current change (%, negative = inhibition) at 10uM” value was -7.82%.
In the case of `Oc1c(C(c2cccs2)N2CCN(c3ccccc3)CC2)ccc2cccnc12` (stereo not shown), the “hERG current change (%, negative = inhibition) at 10uM” value was 7.17%.
To `FC(F)(F)Oc1ccc(NC(=S)Nc2ccc(OC(F)(F)F)cc2)cc1` belongs 11%.
To `O=C1C(Cc2ccc(Br)cc2)SC(=Nc2ccccc2)N1c1ccccc1` (stereo not shown) belongs 5.55%; to `COC(=O)C(C(=O)OC)c1ncccc1[N+](=O)[O-]`, -10.9%.
As for `CC(C)NC(=O)C1c2ccccc2Oc2ccccc21`, the figure is 16.7%; as for `COC(=O)C(Cc1ccc(O)cc1)NC(=O)NC12CC3CC(CC(C3)C1)C2` (stereo not shown), 2.61%; as for `Cl.O=C(O)CCNc1nc(-c2ccccc2)nc2ccccc12`, 2.17%.
For `COCCNC(=O)c1ccc(CN2CCc3ccccc3C2)cc1`, the “hERG current change (%, negative = inhibition) at 10uM” value stood at 10.8%.
As for `O=C(CSc1nc2c(sc3ccccc32)c(=O)n1CCc1ccccc1)NCc1ccco1`, the figure is -8.32%.
As for `CCN(CC)CC(O)COCCC12CC3CC(CC(C3)C1)C2.Cl` (stereo not shown), the figure is -31%; as for `COc1ccc(CCN=C(N)C(C)c2ccccc2)cc1OC.Cl` (stereo not shown), 11.4%; as for `Cc1ccc(S(=O)(=O)N(C(=O)c2ccncc2)c2ccc(OC(=O)c3ccncc3)cc2)cc1`, -33.2%.
As for `COc1cc(C(=O)N2CCc3ccccc32)cc(OC)c1OC`, the figure is 3.67%.
As for `Cc1ccc(C(=O)Nc2cccc(Oc3ccccc3)c2)o1`, the “hERG current change (%, negative = inhibition) at 10uM” value is -29%.
To `CO/N=C/c1ccc(Oc2ccc(C)cc2)nc1` belongs 11.1%; to `Cn1c(SCC(=O)N/N=C/c2ccncc2)nc2ccccc21`, -7.69%.
Turning to `CC(C)c1ccccc1OCC(=O)Nc1ccccc1C(=O)N1CCOCC1`, the “hERG current change (%, negative = inhibition) at 10uM” value is given as -30.4%.
As for `CN1C(=O)CS(=O)c2ccc(C(=O)NCCC3=CCCCC3)cc21` (stereo not shown), the figure is 6.39%; as for `CCN(CC)CCNC(=O)CCN1N=C(c2ccccc2)CCC1=O`, 14.1%.
As for `Cc1ccc(C)c(NC(=O)C2C3C=CC(O3)C2C(=O)O)c1` (stereo not shown), the figure is 15.4%; as for `CC1(C)Cc2c(sc(/N=C/N3CCOCC3)c2C#N)C(C)(C)N1`, 4.9%.
As for `COc1ccccc1NC(=O)Nc1nc(CC(=O)Nc2cccc(F)c2)cs1`, the figure is -3.26%; as for `Cc1ccc(NC(=O)CSc2sc3c(O)cc(=O)[nH]c3c2C#N)cc1C`, -2.68%.
In the case of `c1ccc(CN2CCOCCOCCOCC2)cc1`, the “hERG current change (%, negative = inhibition) at 10uM” value worked out at 15.6%.
In the case of `CCN(CC)S(=O)(=O)c1cc(Cl)ccc1OC`, the “hERG current change (%, negative = inhibition) at 10uM” value is on record as -0.703%.
As for `CC(C)C(NS(=O)(=O)c1cccs1)C(=O)NCc1ccccc1` (stereo not shown), the “hERG current change (%, negative = inhibition) at 10uM” value was determined as 17.9%.
As for `COCCCNC(=S)NC1CCCCC1`, the figure is -10.9%; as for `Cc1ccnc(NS(=O)(=O)c2ccc(NC(=O)C3CC=CCC3C(=O)O)cc2)n1` (stereo not shown), 7.5%; as for `S=C(Nc1ccc(Cl)cc1)NC1CC2CCCC(C1)N2C1CCCC1` (stereo not shown), -55.5%.
As to `Cn1c(N)c(C(=O)COC(=O)c2ccc(OC(F)F)cc2)c(=O)n(C)c1=O`, the “hERG current change (%, negative = inhibition) at 10uM” value was -11.8%.
For the compound `Cc1[nH]c2c(C(=O)N3CCCC(CCC(=O)NCc4ccccc4F)C3)cccc2c1C` (stereo not shown), the “hERG current change (%, negative = inhibition) at 10uM” value is recorded as 3.39%.
As for `CC(C)CSc1nnc2c(n1)[nH]c1ccccc12`, the figure is 9.6%.
Turning to `O=C(NC1CCS(=O)(=O)C1)c1cccc(S(=O)(=O)N2CCCCCC2)c1` (stereo not shown), the “hERG current change (%, negative = inhibition) at 10uM” value came to 1.79%.
As for `COC(=O)c1cnn(-c2nc3c(C)cccc3s2)c1C`, the figure is -18.5%; as for `O=C(c1ccc2nc(-c3ccccc3)c(-c3ccccc3)nc2c1)N1CCCCC1`, -19.7%.
As for `O=C(O)c1ccc(CSc2nnc(-c3ccccc3)n2-c2ccccc2)cc1`, the “hERG current change (%, negative = inhibition) at 10uM” value is 5.45%.
In the case of `CON(C)c1nc(NCC(C)C)nc(OCC#N)n1`, the “hERG current change (%, negative = inhibition) at 10uM” value is listed as -3.4%.
As for `O=C(NCCc1ccc(Cl)cc1)C1CCN(C(=O)c2ccc(F)cc2)CC1`, the figure is -46.1%.
As for `COc1ccc(C(C)=O)cc1CSc1nncn1-c1ccccc1`, the figure is -31.4%.
As for `COc1ccc(-c2noc(N3CCC(C(=O)Nc4cc(OC)c(OC)c(OC)c4)CC3)n2)cc1`, the figure is -3.06%; as for `Cc1ccc(N2C(=O)CSC2c2ccccn2)cc1Cl` (stereo not shown), 5.85%; as for `Cc1ccc(-n2c(-c3ccccc3)nnc2-c2cccs2)cc1`, 23.9%.
`O=C(CSc1nc2ccc(Cl)cc2[nH]1)NC1CCCc2ccccc21` (stereo not shown): the “hERG current change (%, negative = inhibition) at 10uM” value was found to be 16.5%.
As for `COc1ccc(CCNC(=S)N2CCN(S(=O)(=O)c3ccc(C)cc3)CC2)cc1`, the figure is 12.2%.
To `CC(/C=N/NC(=O)CSc1n[nH]c(=O)[nH]c1=O)=C\c1ccccc1` belongs 5.71%; to `COc1ccc(NC(=O)CSc2nnc(-c3cccnc3)o2)cc1`, -10.1%; to `CN1CCN(S(=O)(=O)c2cccc(C(=O)N(Cc3ccccc3)c3ccccc3)c2)CC1`, -19.9%.
As for `CC(C)(C)OC(=O)NCc1ccc(CNC(=O)c2[nH]cnc2C(=O)N[C@@H](Cc2ccccc2)C(=O)OC(C)(C)C)cc1`, the figure is -3.1%.
In the case of `Fc1cccc(Cc2noc(CN3CCN(c4cnccn4)CC3)n2)c1`, the “hERG current change (%, negative = inhibition) at 10uM” value was -10.9%.
As for `CCOc1ccc(S(=O)(=O)N2CCCCC2)cc1NC(=O)CN1C(=O)NC(C)(c2ccccc2)C1=O` (stereo not shown), the figure is -35.5%; as for `COc1cccc(C(=O)N(C)c2nnc(-c3ccncc3)s2)c1`, -4.78%.
To `O=C(Nc1ccccc1)c1ccc(S(=O)(=O)NCC2CCCO2)cc1` (stereo not shown) belongs 2.12%.
As for `CC(C)n1c(-c2ccc(N(C)C)cc2)nc2ccccc21`, the figure is -44.7%; as for `Cc1ccc(NC(=O)COc2ccc(-n3ccnc3)cc2)cc1Cl`, -33.6%; as for `O=C1C2C3CC(C2C(=O)N1c1cccc(Cl)c1)[C@H](O)C3O` (stereo partly shown), 9.69%.
Turning to `Cc1cc(Cl)ccc1OCC(=O)Nc1ccncc1`, the “hERG current change (%, negative = inhibition) at 10uM” value was -5.88%.
To `CS(=O)(=O)N(CC(=O)Nc1ccccc1Sc1ccccc1)C1CCCCC1` belongs 4.04%.
To `CC(=O)c1nn(-c2cccc(Br)c2)cc1C(=O)c1ccco1` belongs 6.24%; to `O=C(NCc1ccccn1)C(=O)N/N=C/c1ccccc1O`, 12.9%.
As for `CCc1cc(C(=O)c2ccccc2)c(N)s1`, the figure is -4.5%; as for `COCc1c(C(=O)N2CCN(S(=O)(=O)c3ccccc3Cl)CC2)oc2ccccc12`, -13.9%.
Turning to `CC(C)(Oc1ccc(CCNC(=O)c2ccc(-c3ccccc3)o2)cc1)C(=O)O`, the “hERG current change (%, negative = inhibition) at 10uM” value turned out to be 14%.
On to `Cc1cc(C=O)c(C)n1-c1ccc(Cl)c(C(=O)O)c1`, for which the “hERG current change (%, negative = inhibition) at 10uM” value is 28.8%.
To `CCO[C@H]1OC(C(=O)N2CCN(Cc3ccccc3)CC2)=C[C@@H](c2ccc(C(F)(F)F)cc2)[C@@H]1CCCO` belongs -11%.
